Results reported in patent US11000038B2, “Pyridone compounds and agricultural and horticultural fungicides containing the same as active ingredients” (priority 2017, dated 2021).

Columns and labels:
[1] = tested on: barley powdery mildew fungi (Blumeria graminis f. sp. hordei); assay: Test Example D: barley powdery mildew, spray treatment of barley plants; settings: for Test D control value: barley powdery mildew; for Test D control value class (barley powdery mildew): control value=100{1-(n/3)}
[2] = tested on: wheat brown rust fungi (Puccinia recondita); assay: Test Example E: wheat brown rust, spray treatment of wheat plants; type: in vivo; settings: for Test E control value: wheat brown rust; for Test E control value class (wheat brown rust): control value=100{1-(n/3)}
[3] = tested on: cabbage Alternaria sooty spot fungi (Alternaia brassicicola); assay: Test Example C: cabbage Alternaria sooty spot, spray treatment of cabbage plants; type: in vivo; settings: for Test C control value: cabbage Alternaria sooty spot; for Test C control value class (cabbage Alternaria sooty spot): control value=100{1-(n/3)}
Excerpt: [Test Example C] Cabbage Alternaria Sooty Spot
Test plants (cabbage variety: Shikidori) were cultivated until the cotyledons extended after the sowing of seeds.
<Control Value> Control value=100{1−(n/3)}

[4] = tested on: gray mold fungi (Botrytis cinerea); assay: Test Example B: tomato gray mold, spray treatment of tomato plants; settings: for Test B control value: tomato gray mold; for Test B control value class (tomato gray mold): control value=100{1-(n/3)}
[5] = tested on: grape downy mildew fungus (Plasmopara viticola); assay: Test Example G: grape downy mildew, spray treatment of grape plants; settings: for Test G control value: grape downy mildew, 7 to 10 days after inoculation; for Test G control value class (grape downy mildew): 2.5 ml/pot, grape Neomuscat, 7 to 10 days from inoculation
[6] = spray treatment of barley plants
[7] = spray treatment of wheat plants
[8] = spray treatment of cabbage plants
[9] = spray treatment of tomato plants

| Compound | Test D control value [1, 6] | Test E control value [2, 7] | Test C control value [3, 8] | Test B control value [4, 9] | Test G control value ([5]; 250 ppm spray (2.5 ml/pot)) | Test D control value ([1]; spray treatment) | Test E control value ([2]; spray treatment) | Test C control value ([3]; spray treatment) | Test B control value ([4]; spray treatment) | Test G control value ([5]; 250 ppm spray) | other results |
| --- | --- | --- | --- | --- | --- | --- | --- | --- | --- | --- | --- |
| Cc1ccc(O)cc1-n1cc(Cl)c(=O)c(Cl)c1-c1c(F)cc(F)cc1F [Compound 293] | L (L shows the control value of 50% or less) | H (H shows the control value of more than 50%) | H (H shows the control value of more than 50%) | H (H shows the control value of more than 50%) | L (L shows the control value of 50% or less) |  |  |  |  |  |  |
| COc1ccc(Br)c(-n2cc(C)c(=O)c(C)c2-c2c(F)cccc2F)c1 [Compound 602] |  |  |  |  |  | L (L shows the control value of 50% or less) | H (H shows the control value of more than 50%) | H (H shows the control value of more than 50%) | H (H shows the control value of more than 50%) | L (L shows the control value of 50% or less) |  |
| CCc1c(-c2c(F)cc(F)cc2F)n(-c2cc(OC)ccc2C)cc(C)c1=O [Compound 532] |  |  |  |  |  | H (H shows the control value of more than 50%) | H (H shows the control value of more than 50%) | H (H shows the control value of more than 50%) | H (H shows the control value of more than 50%) | L (L shows the control value of 50% or less) |  |
| Cc1cn(-c2ccccc2)c(-c2c(F)cccc2Br)c(C)c1=O [Compound 608] |  |  |  |  |  | L (L shows the control value of 50% or less) | H (H shows the control value of more than 50%) | H (H shows the control value of more than 50%) | H (H shows the control value of more than 50%) | H (H shows the control value of more than 50%) |  |
| Cc1ccccc1-n1cc(C)c(=O)c(C)c1-c1ccccc1F [Compound 353] | L (L shows the control value of 50% or less) | H (H shows the control value of more than 50%) | H (H shows the control value of more than 50%) | H (H shows the control value of more than 50%) | L (L shows the control value of 50% or less) |  |  |  |  |  |  |
| CCc1c(-c2c(F)cc(F)cc2F)n(-c2cc(C)ccc2C)cc(Br)c1=O [Compound 519] |  |  |  |  |  | H (H shows the control value of more than 50%) | H (H shows the control value of more than 50%) | H (H shows the control value of more than 50%) | H (H shows the control value of more than 50%) | L (L shows the control value of 50% or less) |  |
| Cc1cccc(Cl)c1-n1cc(Br)c(=O)c(Cl)c1-c1c(F)cc(F)cc1F [Compound 307] | L (L shows the control value of 50% or less) | H (H shows the control value of more than 50%) | L (L shows the control value of 50% or less) | H (H shows the control value of more than 50%) | L (L shows the control value of 50% or less) |  |  |  |  |  |  |
| COc1cc(F)c(-c2c(C)c(=O)c(C)cn2C(C)C(C)C)c(F)c1 (stereo not shown) [Compound 155] |  |  |  |  |  |  |  |  |  |  | Test D control value class (barley powdery mildew) [1, 6]: H (H shows the control value of more than 50%); Test E control value class (wheat brown rust) [2, 7]: H (H shows the control value of more than 50%); Test C control value class (cabbage Alternaria sooty spot) [3, 8]: H (H shows the control value of more than 50%); Test B control value class (tomato gray mold) [4, 9]: H (H shows the control value of more than 50%); Test G control value class (grape downy mildew) ([5]; 250 ppm spray): L (L shows the control value of 50% or less) |
| Cc1cccc(F)c1-n1cc(Br)c(=O)c(Br)c1-c1c(F)cc(F)cc1F [Compound 288] | L (L shows the control value of 50% or less) | H (H shows the control value of more than 50%) | H (H shows the control value of more than 50%) | H (H shows the control value of more than 50%) | L (L shows the control value of 50% or less) |  |  |  |  |  |  |
| CC(C)Cn1cc(Br)c(=O)c(Cl)c1-c1c(F)cc(F)cc1F [Compound 115] |  |  |  |  |  |  |  |  |  |  | Test D control value class (barley powdery mildew) [1, 6]: H (H shows the control value of more than 50%); Test E control value class (wheat brown rust) [2, 7]: H (H shows the control value of more than 50%); Test C control value class (cabbage Alternaria sooty spot) [3, 8]: H (H shows the control value of more than 50%); Test B control value class (tomato gray mold) [4, 9]: H (H shows the control value of more than 50%); Test G control value class (grape downy mildew) ([5]; 250 ppm spray): H (H shows the control value of more than 50%) |
| CCc1c(-c2c(F)cc(F)cc2F)n(-c2ccccc2C)cc(C(F)(F)F)c1=O [Compound 312] | H (H shows the control value of more than 50%) | H (H shows the control value of more than 50%) | H (H shows the control value of more than 50%) | H (H shows the control value of more than 50%) | L (L shows the control value of 50% or less) |  |  |  |  |  |  |
| O=c1c(Cl)cn(-c2ccccc2C(F)(F)F)c(-c2c(F)cc(F)cc2F)c1Br [Compound 198] | L (L shows the control value of 50% or less) | H (H shows the control value of more than 50%) | H (H shows the control value of more than 50%) | H (H shows the control value of more than 50%) | L (L shows the control value of 50% or less) |  |  |  |  |  |  |
| COc1cc(F)c(-c2c(CC(F)(F)F)c(=O)c(Br)cn2-c2ccccc2C)c(F)c1 [Compound 356] | H (H shows the control value of more than 50%) | H (H shows the control value of more than 50%) | H (H shows the control value of more than 50%) | H (H shows the control value of more than 50%) | H (H shows the control value of more than 50%) |  |  |  |  |  |  |
| CCCn1cc(Cl)c(=O)c(Cl)c1-c1c(F)cc(F)cc1F [Compound 6] |  |  |  |  |  |  |  |  |  |  | Test D control value class (barley powdery mildew) [1, 6]: L (L shows the control value of 50% or less); Test E control value class (wheat brown rust) [2, 7]: H (H shows the control value of more than 50%); Test C control value class (cabbage Alternaria sooty spot) [3, 8]: H (H shows the control value of more than 50%); Test B control value class (tomato gray mold) [4, 9]: H (H shows the control value of more than 50%); Test G control value class (grape downy mildew) ([5]; 250 ppm spray): L (L shows the control value of 50% or less) |
| Cc1ccc(C)c(-n2cc(Br)c(=O)c(Br)c2-c2c(F)cccc2F)c1 [Compound 207] | L (L shows the control value of 50% or less) | H (H shows the control value of more than 50%) | L (L shows the control value of 50% or less) | L (L shows the control value of 50% or less) | L (L shows the control value of 50% or less) |  |  |  |  |  |  |
| Cc1cccc(Cl)c1-n1cc(Br)c(=O)c(Br)c1-c1ccc(F)cc1 [Compound 380] |  |  |  |  |  | L (L shows the control value of 50% or less) | H (H shows the control value of more than 50%) | L (L shows the control value of 50% or less) | H (H shows the control value of more than 50%) | L (L shows the control value of 50% or less) |  |
| Cc1ccc(C)c(-n2cc(Cl)c(=O)c(Br)c2-c2c(F)cccc2F)c1 [Compound 208] | L (L shows the control value of 50% or less) | H (H shows the control value of more than 50%) | L (L shows the control value of 50% or less) | L (L shows the control value of 50% or less) | L (L shows the control value of 50% or less) |  |  |  |  |  |  |
| Cc1ccc(F)cc1-n1cc(C)c(=O)c(C)c1-c1c(F)cccc1F [Compound 448] |  |  |  |  |  | H (H shows the control value of more than 50%) | H (H shows the control value of more than 50%) | H (H shows the control value of more than 50%) | H (H shows the control value of more than 50%) | L (L shows the control value of 50% or less) |  |
| Cc1cccc(-n2cc(C)c(=O)c(C)c2-c2c(F)cc(F)cc2F)c1C [Compound 465] |  |  |  |  |  | H (H shows the control value of more than 50%) | H (H shows the control value of more than 50%) | H (H shows the control value of more than 50%) | H (H shows the control value of more than 50%) | H (H shows the control value of more than 50%) |  |
| O=c1c(Br)cn(-c2ccccc2)c(-c2cccc(F)c2F)c1Cl [Compound 603] |  |  |  |  |  | L (L shows the control value of 50% or less) | H (H shows the control value of more than 50%) | H (H shows the control value of more than 50%) | H (H shows the control value of more than 50%) | L (L shows the control value of 50% or less) |  |
